The supplement of paper PMC10126150
Values marked as one replicate rest on one cluster of the flow cell; about a third of the high ones do not repeat.
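Also: ATP exposure 15 min at 22 °C before imaging.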

Each sequence was assayed on ATP (assay: switch fluorescence ratio, 500 uM ATP over buffer (Cy3 cluster intensity, sum of 5 cycles each) (fold (ratio)); higher = stronger signal-on switching upon ATP binding; sequences stand for … in TCGTCGGCAGCGTCAGATGTGTATAAGAGACAGTTTTTTTTTTTTTTTTTTTTTTTTT…TC). Details: aptamer strand: ATP DNA aptamer (quencher-CACCTGGGGGAGTATTGCGGAGGAAGG + anchor), 100 nM annealed; ATP concentration: 500 uM; one replicate.
Outline: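 Values give the fluorescence ratio for each switch-domain sequence, averaged from per-cluster ratios of summed target-cycle to summed buffer-cycle Cy3 intensity. The Cy3-labelled switching-strand clusters sat on a modified Illumina MiSeq flow-cell, were annealed to 100 nM quencher-labelled ATP aptamer, and were imaged in selection buffer, then after 15 min with 500 uM ATP at 22 °C. Five cycles ran with NaOH stripping and re-annealing between them, and clusters outside 100-1000 RFU were excluded.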
Work on AAATATTCA yielded a switch fluorescence ratio of 1.02. In the case of GTACTAATAG, the switch fluorescence ratio is reported as 1.05. For TTCGGACGAC, the switch fluorescence ratio was 1.09. With AAGTAGCTT the switch fluorescence ratio was 1.01. With TCACTGGAGG the switch fluorescence ratio was 0.977. Sequence TAGCTTATCC has a switch fluorescence ratio of 1.06. Sequence CGAATCGTTT has a switch fluorescence ratio of 0.991. Work on AGGGGTCTGG yielded a switch fluorescence ratio of 0.999. Work on CTACTTGAG yielded a switch fluorescence ratio of 1.02. Work on GATTATTA yielded a switch fluorescence ratio of 1.01. Sequence GTCGTGCCAG has a switch fluorescence ratio of 0.969. GTTGGACGGA was tested, and the switch fluorescence ratio was 0.966. TTGATCGTCA gave a switch fluorescence ratio of 1.03. CAGTTTAGG showed a switch fluorescence ratio of 1. Work on TAACCTAAGG yielded a switch fluorescence ratio of 0.973. Work on GGATGCGCGT yielded a switch fluorescence ratio of 0.987. CCGTAACCAC was tested, and the switch fluorescence ratio was 2.92. ATCAAACCGC showed a switch fluorescence ratio of 1.32. ATCCAATCCC was tested, and the switch fluorescence ratio was 1.01. For ACCAGCGCAT, the switch fluorescence ratio was 1.47. CAGATTGTAA showed a switch fluorescence ratio of 0.973. With TAAGTATCGG the switch fluorescence ratio was 0.999. In the case of GTGCAAAGGG, the switch fluorescence ratio is reported as 0.977. For GGTAGGGGCC, the switch fluorescence ratio was 0.942. TGGGCTTGCA showed a switch fluorescence ratio of 0.981. With TCTCACCATT the switch fluorescence ratio was 1.03. With GCTTCTTTGG the switch fluorescence ratio was 1.02. Work on TCTGCGGGTT yielded a switch fluorescence ratio of 0.979. Sequence CACCATGCTA has a switch fluorescence ratio of 0.974. With TTCATAAGCT the switch fluorescence ratio was 1.01. CCTGAATTGG showed a switch fluorescence ratio of 1.01. Sequence AGTCTACATT has a switch fluorescence ratio of 1.04. With GACTATTCGT the switch fluorescence ratio was 1.01. In the case of TTAACGCGTG, the switch fluorescence ratio is reported as 0.982. GTCGACATA was tested, and the switch fluorescence ratio was 1.03. Work on GGTGAGACGG yielded a switch fluorescence ratio of 1.01. TTTATCGCAA was tested, and the switch fluorescence ratio was 2.49. With CGGAGATGAC the switch fluorescence ratio was 1.28. With GAATCCACTT the switch fluorescence ratio was 1.12. CACTCGCGC showed a switch fluorescence ratio of 1.37. AGTGTGTCCC gave a switch fluorescence ratio of 0.93. In the case of CCTTGGGTTA, the switch fluorescence ratio is reported as 1.03. Sequence CGGAGCGAGG has a switch fluorescence ratio of 1.56. CGTTGATTCA gave a switch fluorescence ratio of 0.977. With TATAAGCCCG the switch fluorescence ratio was 1. With TGACGGTAAT the switch fluorescence ratio was 1.07. TAGACTCATA gave a switch fluorescence ratio of 0.983. Sequence CGGAAACATG has a switch fluorescence ratio of 0.993. Sequence ATTTATACGA has a switch fluorescence ratio of 1.03. GCATACAAGT gave a switch fluorescence ratio of 1.03. GCATAGCCGT gave a switch fluorescence ratio of 0.973. Sequence TAGATGCGTT has a switch fluorescence ratio of 0.994. GACGACATCT showed a switch fluorescence ratio of 1.02. With GGTGGTAGAT the switch fluorescence ratio was 0.962. In the case of ATGCCCCTTG, the switch fluorescence ratio is reported as 0.978. Sequence TTCAGGACGC has a switch fluorescence ratio of 1.09. AATCGTTAG showed a switch fluorescence ratio of 0.95. In the case of GAGGAGGGTC, the switch fluorescence ratio is reported as 1.02. GTTCCGATGT gave a switch fluorescence ratio of 1.2. Work on GATTTTACAG yielded a switch fluorescence ratio of 0.999. CTTGTGTTTC showed a switch fluorescence ratio of 1.03. In the case of TAAAGGTTAA, the switch fluorescence ratio is reported as 0.977. With GCAATCGTGA the switch fluorescence ratio was 1.06. AGCTACAAAC gave a switch fluorescence ratio of 1.14. Work on AGAGTGCGGC yielded a switch fluorescence ratio of 1.07. Work on GGGAAGCAGA yielded a switch fluorescence ratio of 0.984. For GGGGCTTAAC, the switch fluorescence ratio was 1.01. TCTATGGTTG gave a switch fluorescence ratio of 0.902. ACTTCATCCA showed a switch fluorescence ratio of 1.35. With GCAGCTACGA the switch fluorescence ratio was 1.81. Work on TAGATAACAC yielded a switch fluorescence ratio of 1.03. GGCGCATGGG showed a switch fluorescence ratio of 0.989. GGCCACCGAA showed a switch fluorescence ratio of 1. Sequence GAATCAACCG has a switch fluorescence ratio of 1.03. For TAGGGGCGGA, the switch fluorescence ratio was 1.03. CGTAACCTG showed a switch fluorescence ratio of 1.03. Sequence GCTCAACCAC has a switch fluorescence ratio of 1.07. TGTTAGTAAC was tested, and the switch fluorescence ratio was 0.977. Sequence GTTTTCCGGC has a switch fluorescence ratio of 1.02. Sequence AAAGTATAT has a switch fluorescence ratio of 0.97. In the case of AGTAAGTG, the switch fluorescence ratio is reported as 1.02. With GCACTGCTCG the switch fluorescence ratio was 1.05. CACATTTAAT showed a switch fluorescence ratio of 1.06. CACCTGTCGC gave a switch fluorescence ratio of 1.13. In the case of TACCCTTGAC, the switch fluorescence ratio is reported as 1.07. Sequence CTGGTAGCAC has a switch fluorescence ratio of 1.75. Sequence CAGGAAAAGA has a switch fluorescence ratio of 1. For TAGAAGGCCA, the switch fluorescence ratio was 1.02. TTACCTACCG showed a switch fluorescence ratio of 1.27. For CAGCCGTTGA, the switch fluorescence ratio was 1.01. TTATCAAGG gave a switch fluorescence ratio of 0.984. TATACCCGGC was tested, and the switch fluorescence ratio was 1.08. CCTACCTAGT showed a switch fluorescence ratio of 1.07. GCTACTGGC gave a switch fluorescence ratio of 0.973. TAGCCCGAAG gave a switch fluorescence ratio of 1.03. In the case of GACAACCGGG, the switch fluorescence ratio is reported as 1.15. In the case of TATTTTTGT, the switch fluorescence ratio is reported as 0.986. Sequence GCCTACCTAG has a switch fluorescence ratio of 1.03. CTCGCTTAGC gave a switch fluorescence ratio of 1.26. CGCAGGGTA gave a switch fluorescence ratio of 1.05. Sequence GCGCTACGAA has a switch fluorescence ratio of 1.19. CTCAGGCTGA was tested, and the switch fluorescence ratio was 1.05. Work on TAAATCTAAG yielded a switch fluorescence ratio of 0.969. In the case of GTTCTAATTA, the switch fluorescence ratio is reported as 1.01. GGAGGAACTT was tested, and the switch fluorescence ratio was 1.04. Work on CGAGTTTTGA yielded a switch fluorescence ratio of 0.956. In the case of TCTTTTACCG, the switch fluorescence ratio is reported as 0.971. ATAGGCAGTT was tested, and the switch fluorescence ratio was 0.966. With TGCGCCGATT the switch fluorescence ratio was 1.04. In the case of CTAGACTGAT, the switch fluorescence ratio is reported as 1.02. In the case of CTACCCGTCG, the switch fluorescence ratio is reported as 0.989. In the case of TTAGGTCCTC, the switch fluorescence ratio is reported as 0.987. Sequence AGCTAGTAAT has a switch fluorescence ratio of 1.03. ATTACCGGAC gave a switch fluorescence ratio of 1.76. Work on CTTTTGATTG yielded a switch fluorescence ratio of 1.01. With AACGAAAATT the switch fluorescence ratio was 0.984. For GTAGCATTGG, the switch fluorescence ratio was 1.87. TATATAGCAA gave a switch fluorescence ratio of 1.58. GGCGTAGTAG was tested, and the switch fluorescence ratio was 0.996. With TCCAGTTTC the switch fluorescence ratio was 1.02. CGGATACAAG was tested, and the switch fluorescence ratio was 0.983. Sequence AGAGTGCTGG has a switch fluorescence ratio of 0.99. Work on AACGGCCGGT yielded a switch fluorescence ratio of 1.02. GCCTAGTGCC was tested, and the switch fluorescence ratio was 0.982. Sequence GTCAATAGTG has a switch fluorescence ratio of 1.05. TAGGAATCCT gave a switch fluorescence ratio of 1.07. In the case of AACCTGTTCC, the switch fluorescence ratio is reported as 1.83. Work on ACCCCCAAAA yielded a switch fluorescence ratio of 1.35. With GTTATCGCCA the switch fluorescence ratio was 1.01. For CTAGGTGGG, the switch fluorescence ratio was 1.02. In the case of ATGGGCATAC, the switch fluorescence ratio is reported as 1.84. Sequence ACTAGTATTC has a switch fluorescence ratio of 0.999. CCCTCTGTGT gave a switch fluorescence ratio of 1.36. GGAATAACGA showed a switch fluorescence ratio of 1.08. GCTTCTATCA showed a switch fluorescence ratio of 1.01. GATTTACAGG gave a switch fluorescence ratio of 1.03. ATGGTGAACA was tested, and the switch fluorescence ratio was 0.984. For TTGAGGCTGC, the switch fluorescence ratio was 0.994. Sequence CTTCGTGTGC has a switch fluorescence ratio of 1.13. GCGAACAGTA showed a switch fluorescence ratio of 1.02. With ACATGCATGG the switch fluorescence ratio was 1.01. TGATTTTGAC gave a switch fluorescence ratio of 0.99. Sequence TCGTGCGGGC has a switch fluorescence ratio of 1.06. ACTGTCGATA showed a switch fluorescence ratio of 1.06. TAAAGGAACT gave a switch fluorescence ratio of 1.01. Work on CATGAGTGCA yielded a switch fluorescence ratio of 1.04. With GGTTAAGG the switch fluorescence ratio was 0.998. For ACTATTTTCG, the switch fluorescence ratio was 0.993. For GACGGACGG, the switch fluorescence ratio was 1.09. For GGGGATTGGC, the switch fluorescence ratio was 0.893. For TAGCTAAAGA, the switch fluorescence ratio was 1.03. For GTTTGTGAAG, the switch fluorescence ratio was 1.03. TATGTATGTA gave a switch fluorescence ratio of 0.992. Sequence AAGTGATCT has a switch fluorescence ratio of 0.99. Work on TCGAGGGACG yielded a switch fluorescence ratio of 1.06. GCTAGCTCCT gave a switch fluorescence ratio of 1.05. For TTCGATTGGA, the switch fluorescence ratio was 1.01. GTTGGTACAT showed a switch fluorescence ratio of 0.984. With AGTATTCAG the switch fluorescence ratio was 0.999. For GGTAGGTACG, the switch fluorescence ratio was 0.966. With GAAACATTCT the switch fluorescence ratio was 1.26. Work on CAGACCACAT yielded a switch fluorescence ratio of 1.06. Sequence GGGTCTCGGG has a switch fluorescence ratio of 0.995. TGCGGCGGTT was tested, and the switch fluorescence ratio was 1.01. Sequence TTCTCGGCCA has a switch fluorescence ratio of 1.14. Sequence CGCCATATCC has a switch fluorescence ratio of 1.82. GAATAGTAGC was tested, and the switch fluorescence ratio was 0.947. TGCTATGTCC gave a switch fluorescence ratio of 1.09. In the case of TGGTTGTATA, the switch fluorescence ratio is reported as 0.974. TACGTTAGCG was tested, and the switch fluorescence ratio was 1.02. TGGCCTGAG was tested, and the switch fluorescence ratio was 1.08. CCTGTGGCTA was tested, and the switch fluorescence ratio was 1.4. CCGATTTGGA gave a switch fluorescence ratio of 1.02. In the case of TGAGCGTCAC, the switch fluorescence ratio is reported as 1.02. TCACGAATAA was tested, and the switch fluorescence ratio was 1.06. ATAATGTTTG showed a switch fluorescence ratio of 0.998. ACTGGACGA was tested, and the switch fluorescence ratio was 1.23. TCTCAGATTA gave a switch fluorescence ratio of 1. AAGGTCCTCA was tested, and the switch fluorescence ratio was 1.01. In the case of CTGTTATTC, the switch fluorescence ratio is reported as 1.01. With GGTGTAGTT the switch fluorescence ratio was 0.974. Sequence AGTAAGGTAG has a switch fluorescence ratio of 1.01. Sequence GAATTCATCG has a switch fluorescence ratio of 1.01. In the case of CTACCCTGCG, the switch fluorescence ratio is reported as 1.03. With TTTTGCATCA the switch fluorescence ratio was 0.981. With CTTTCCGATT the switch fluorescence ratio was 1.04. Sequence TGTGGTGGG has a switch fluorescence ratio of 1.02. Work on AATGAGAGCC yielded a switch fluorescence ratio of 0.977. Work on CGAAATCTGA yielded a switch fluorescence ratio of 1.01. AATGACTTTG gave a switch fluorescence ratio of 1.02. GTAGTCCGGT gave a switch fluorescence ratio of 0.996. With TATTAAGACT the switch fluorescence ratio was 1.02. GTAGTACCAC was tested, and the switch fluorescence ratio was 1.02. For AGCTGTGTCA, the switch fluorescence ratio was 0.993. Sequence AGCTCGTCCT has a switch fluorescence ratio of 0.975. In the case of TGCACCGTAC, the switch fluorescence ratio is reported as 1.8. CGTCAGTACT showed a switch fluorescence ratio of 1.55. TCTACTGTG was tested, and the switch fluorescence ratio was 1.06. With ACAAGATCTC the switch fluorescence ratio was 1.01. TTGCGTGACC showed a switch fluorescence ratio of 1.1. TTAACGGAAG was tested, and the switch fluorescence ratio was 1.07.
